Measured values as given in patent US20020177231A1 (published 2002).

Biological target: T1, PYK2 (UniProt Q14289)
T1 construct: Endogenous protein in cell lysate, detected with anti-PYK2 monoclonal antibody P47120 (Transduction Labs)
Experiment: GST pull-down from JY8-8 lysate, anti-Pyk2 immunoblot
Method: In preparation of cell lysate including Pyk2, JY8-8 cell lysate was prepared by disrupting 4×10⁷ exponentially growing cells in one ml of Ipegal Lysis Buffer (described above) for 10 minutes on ice. Lysate was clarified by centrifugation at 10,000 rpm in a microfuge at 4° C. JY8-8 lysate (corresponding to approximately 1×10⁷ cells) was incubated for 90 minutes with 30 μl glutathione agarose on which approximately one μg of GST or GST-containing fusion protein was immobilized. The resin was washed three times with one ml Ipegal lysis buffer.
Pyk2 present in lysates of JY8-8 cells bound specifically to GST-LD protein but not to GST alone. Pyk2 binding was detected with wild-type GST-LD, and GST-LD proteins with mutations in the second or fourth LD motifs.

B1: GST protein (other)
chain: not shown
notes: Negative control immobilized on glutathione agarose; also called GST alone
B1: no binding.
